From PubChem BioAssay AID488969 (Vanderbilt High Throughput Screening Facility, 2010)
Whole data set: some 110,000 compounds, median “z-score” near -0.1, cut for the highest 2% near 2. Some of the results follow.

These molecules were tested against Metabotropic glutamate receptor 8 (Rattus norvegicus) (UniProt P70579) (assay: rat mGluR8 modulators via GIRK flux, primary screen, cell-based, thallium flux, HTS (AID 488969)). Settings: HEK293 rat mGluR8, GIRK (G protein-gated inwardly rectifying potassium channel) thallium flux, FluoZin2; at 10 µM; stronger effect = higher value; submaximal glutamate (EC20) added with thallium.
Sequence of UniProt P70579 (P70579 whole entry, looked up): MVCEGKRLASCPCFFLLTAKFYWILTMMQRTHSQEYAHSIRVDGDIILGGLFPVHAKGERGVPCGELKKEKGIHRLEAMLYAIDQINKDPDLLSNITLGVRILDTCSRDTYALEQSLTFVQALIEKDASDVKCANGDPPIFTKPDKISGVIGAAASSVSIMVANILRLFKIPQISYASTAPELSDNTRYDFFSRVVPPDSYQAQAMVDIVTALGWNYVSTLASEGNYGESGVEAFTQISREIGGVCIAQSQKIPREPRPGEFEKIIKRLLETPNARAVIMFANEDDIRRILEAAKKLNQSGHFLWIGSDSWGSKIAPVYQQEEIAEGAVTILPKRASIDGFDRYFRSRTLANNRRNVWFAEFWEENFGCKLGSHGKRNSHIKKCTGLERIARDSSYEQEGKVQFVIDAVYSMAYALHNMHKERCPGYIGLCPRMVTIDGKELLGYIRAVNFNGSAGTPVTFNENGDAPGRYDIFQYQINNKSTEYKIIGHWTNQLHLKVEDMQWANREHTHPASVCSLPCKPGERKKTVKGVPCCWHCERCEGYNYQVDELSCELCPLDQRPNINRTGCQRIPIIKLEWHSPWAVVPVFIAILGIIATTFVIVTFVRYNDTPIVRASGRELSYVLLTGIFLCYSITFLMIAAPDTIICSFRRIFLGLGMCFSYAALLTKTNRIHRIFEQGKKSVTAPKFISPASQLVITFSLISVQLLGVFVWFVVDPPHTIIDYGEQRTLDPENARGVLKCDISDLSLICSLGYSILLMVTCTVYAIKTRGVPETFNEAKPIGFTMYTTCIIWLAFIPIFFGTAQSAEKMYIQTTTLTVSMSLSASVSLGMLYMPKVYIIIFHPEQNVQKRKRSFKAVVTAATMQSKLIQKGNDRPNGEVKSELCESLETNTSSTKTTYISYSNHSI
With `Cn1cc(C(CC(=O)O)C(=O)O)c2ccccc21` (centres undefined) the z-score was 0.0131. Molecule `Cc1ccc(S(=O)(=O)/N=C(/NC(=S)Nc2ccccc2)c2ccccc2)cc1` has a z-score of 0.34. `COc1cccc(C(=O)Nc2cc(=O)n(C)c(=O)n2C)c1OC` was tested, and the z-score was -0.112. In the case of `CCCNc1[nH]c(=O)n(C)c(=O)c1N=O`, the z-score is reported as -0.206. For `CCN(C(=O)c1cccc(Br)c1)c1ccccc1`, the z-score was -0.565. With `CCOc1cc(CNCCSc2nnnn2C)cc(Br)c1OCc1ccccc1` the z-score was 2.3. `Cc1cc(C)n2nc(C(=O)OCC(=O)c3cc(C)n(C)c3C)nc2n1` showed a z-score of -0.164. Molecule `CCCNC(=O)C(=O)N/N=C/c1cccs1` has a z-score of -0.243. For `O=Cc1cn(CC(=O)N2CCCc3ccccc32)c2ccccc12`, the z-score was -0.254. `CCn1c(=O)c2c(O)cc(=O)oc2c2ccccc21` showed a z-score of -0.0943. Work on `CCC(=O)Nc1nc(CC(=O)Nc2ccccc2OC)cs1` yielded a z-score of -0.027. `COc1ccccc1CC1(C)NC(=O)N(CC(=O)Nc2cc(C)on2)C1=O` (centres undefined) gave a z-score of 0.812. For `COCCCn1c(SCC(=O)Nc2ccc(C(=O)OC)cc2)nc2ccccc2c1=O`, the z-score was 0.0898. With `Cc1ccc2cc(C(c3nnnn3CC3CCCO3)N3CCCC4(CCCCC4)C3)c(=O)[nH]c2c1` (centres undefined) the z-score was 0.0696. With `CC(OC(=O)c1snc(C(=O)NC2CCCCC2)c1N)C(=O)NC1CCCCC1` (centres undefined) the z-score was 0.127. With `COC(=O)c1cccc(NC(=O)CCSc2ccc(Cl)cc2)c1C` the z-score was -0.0393. `COc1cc2nc(/C=C/c3cc(OC)c(OC)c(OC)c3)sc2cc1SC` showed a z-score of -0.168. Molecule `CSc1nc(SCC(N)=O)c2c3c(sc2n1)CN(C)CC3` has a z-score of -0.647. Work on `C=CCN1C(=O)C(Cc2ccc(C)cc2)S/C1=N/N=C/c1ccco1` (centres undefined) yielded a z-score of -0.0743. Molecule `O=C(CSc1ncc(-c2ccccc2)n1-c1ccccc1)NCc1ccco1` has a z-score of -0.867. With `COc1ccccc1-n1c(CNC(=O)c2ccco2)nnc1SCC(=O)Nc1nccs1` the z-score was -0.513. Molecule `CCOC(=O)N1CCN(C(=O)CSc2cc(C)nc3c(-c4ccccc4OC)c(C)nn23)CC1` has a z-score of -0.649. `CCOC(=O)Cn1c(=O)oc2cc(S(=O)(=O)NC3CCCc4ccccc43)ccc21` (centres undefined) showed a z-score of 0.143. In the case of `O=S(=O)(c1ccccc1)N1CCn2c(nc3ccccc32)C1`, the z-score is reported as -0.0705. For `Clc1cccc(Cl)c1Cn1cnc(=NCc2ccco2)c2[nH]cnc21`, the z-score was -0.33. In the case of `S=C(c1ccc(-c2ccc(Cl)cc2Cl)o1)N1CCCCC1`, the z-score is reported as -0.256. Work on `Cc1cc(C(=O)OC(C)C(=O)Nc2cccc(S(=O)(=O)N3CCOCC3)c2)c(C)o1` (centres undefined) yielded a z-score of -0.26. `O=C(c1ccc2c(=O)n(-c3ccccc3)c(=O)[nH]c2c1)N1CCCCC1` showed a z-score of 0.182. Molecule `CCN1C(=O)/C(=C/N(C(C)=O)c2ccccc2)N(c2ccccc2)C1=S` has a z-score of 1.79. In the case of `CCOc1cc(C(=O)Nc2c3c(nn2C(C)(C)C)CS(=O)C3)cc(OCC)c1OCC` (centres undefined), the z-score is reported as -0.894. Work on `CCC(=O)Nc1sc2c(c1C#N)CC(C)(CC)OC2` (centres undefined) yielded a z-score of -0.834. Molecule `Cc1ccc(NC(=O)c2cc(S(=O)(=O)NCCc3ccccc3)ccc2F)cc1Cl` has a z-score of 0.122. Work on `Cc1cc(C)nc(-n2nc(C)c(C3(O)C(=O)Nc4ccc(F)cc43)c2N)n1` (centres undefined) yielded a z-score of -0.784. `Cc1cc(C(=O)NCc2ccccc2Br)no1` gave a z-score of -0.0761. Work on `N/C(=N\OS(=O)(=O)c1ccccc1)c1cccnc1` yielded a z-score of -0.152. For `COc1cc2c(cc1OC)C(c1cccs1)N(C(=O)C(C)C)CC2` (centres undefined), the z-score was -0.132. With `COc1ccc(CC(=O)OCC(=O)NC(=O)NC(C)C)cc1` the z-score was 0.37. Molecule `O=C(/C(=N\Nc1ccc([N+](=O)[O-])cc1)Sc1nnnn1-c1ccccc1)c1ccccc1` has a z-score of 0.236. `S=c1[nH]nc(COc2ccccc2)n1/N=C/C=C/c1ccccc1` gave a z-score of 0.401. `CCCCN(C)C/C(O)=C(\C#N)c1nc(-c2ccccc2)cs1` gave a z-score of 0.199. `Cc1ccc(-c2cc(C(=O)N/N=C/c3c(C)nn(-c4ccccc4)c3C)n[nH]2)s1` gave a z-score of -0.686. Molecule `CCc1cc2c(cc3c(=O)n(CC(=O)NCCCN4CC(C)CC(C)C4)ncn32)s1` (centres undefined) has a z-score of 2.41. With `O=C(CSc1nnc(SCc2ccc(Cl)cc2)s1)N/N=C/c1c(Cl)cccc1Cl` the z-score was 0.249. In the case of `COc1ccc2c3c(c(=O)oc2c1OCC(=O)O)CCCC3`, the z-score is reported as 0.843. For `Cc1cccc(N2CCN(C(=O)Cc3c(C(=O)O)[nH]c4ccc(Cl)cc34)CC2)c1C`, the z-score was -1.15. For `Cc1ccc2c(CN3CCN(CCO)CC3)cc(=O)oc2c1C`, the z-score was -0.38. Work on `O=C(O)c1sccc1Oc1ccc(F)cc1[N+](=O)[O-]` yielded a z-score of -0.0912. With `Cc1cc(C)n2nc(C(=O)NCc3ccccc3)nc2n1` the z-score was -0.519. In the case of `CCCN(CCC)S(=O)(=O)c1ccc(C(=O)N2CCOCC2)cc1`, the z-score is reported as -0.0378. Molecule `COc1cccc(C2CC(c3c(Cl)cccc3Cl)n3nc(N)nc3N2)c1` (centres undefined) has a z-score of 0.609. With `Oc1ccc(Cl)cc1CNc1ccc(Br)cn1` the z-score was 0.33. In the case of `CCOC(=O)CCc1c(C)nc2cc(C3CCCN(C(=O)OC(C)(C)C)C3)[nH]n2c1=O` (centres undefined), the z-score is reported as -1.27. `O=C(CSc1ccccc1)Nc1ccccc1C(=O)O` gave a z-score of -0.231. Work on `COc1ccc(C(C(C(=O)c2ccco2)N2CCOCC2)N2CCOCC2)cc1` (centres undefined) yielded a z-score of -0.154.
